This is an account of results in the GPR68 mutational scans of Howard et al. (2025).

Scores with a large standard error are left out. The source holds two more conditions with little spread; they are left out. In variant names, del marks residues removed and ins residues inserted between the two positions. For part of these data: How much ogerin was present is not stated here.

The chains are these.
B1: GPR68, Q15743 (parent)
chain: MGNITADNSSMSCTIDHTIHQTLAPVVYVTVLVVGFPANCLSLYFGYLQIKARNELGVYLCNLTVADLFYICSLPFWLQYVLQHDNWSHGDLSCQVCGILLYENIYISVGFLCCISVDRYLAVAHPFRFHQFRTLKAAVGVSVVIWAKELLTSIYFLMHEEVIEDENQHRVCFEHYPIQAWQRAINYYRFLVGFLFPICLLLASYQGILRAVRRSHGTQKSRKDQIQRLVLSTVVIFLACFLPYHVLLLVRSVWEASCDFAKGVFNAYHFSLLLTSFNCVADPVLYCFVSETTHRDLARLRGACLAFLTCSRTGRAREAYPLGAPEASGKSGAQGEEPELLTKLHPAFQTPNSPGSGGFPTGRLA

Variants of B1 are the subject of data set [1]. As to the kind of experiment: cAMP reporter score (Enrich2 score, wild type = 0); higher = more signal; HEK293T, FACS bins.
The variants in data set [2] derive from B1. As to the kind of experiment: surface expression score (Enrich2 score, wild type = 0); higher = more signal; HEK293T, FACS bins.

Take P360_T361del: the cAMP reporter score in data set [1] (pH 5.5) was 0.916; in data set [1] (pH 6), -0.241; in data set [1] (pH 6, modulator: ogerin), 0.656; in data set [1] (pH 6.5, modulator: ogerin), 0.922. Moreover, the surface expression score in data set [2] amounted to 0.313.
Take P360del: the cAMP reporter score was 1.71 in data set [1] (pH 5.5); -0.553 in data set [1] (pH 6); -0.555 in data set [1] (pH 6.5, modulator: ogerin). The surface expression score in data set [2] stood at 2.47.
In the case of G362_L364del, the cAMP reporter score was 1.07 in data set [1] (pH 5.5); 0.266 in data set [1] (pH 6); 0.699 in data set [1] (pH 6, modulator: ogerin); 0.222 in data set [1] (pH 6.5, modulator: ogerin). Besides, in data set [2], the surface expression score amounted to 0.35.
Regarding G357N, the cAMP reporter score in data set [1] (pH 5.5) is 0.875; in data set [1] (pH 6) it was -0.271; in data set [1] (pH 6, modulator: ogerin) it was 0.074; in data set [1] (pH 6.5, modulator: ogerin) it was 0.316. For the same variant, in data set [2], the surface expression score is 1.05.
Turning to G357I, the cAMP reporter score in data set [1] (pH 5.5) is 0.857; in data set [1] (pH 6), 0.423; in data set [1] (pH 6, modulator: ogerin), 0.924; in data set [1] (pH 6.5, modulator: ogerin), 0.326. Moreover, the surface expression score in data set [2] was determined as 0.595.
The corresponding values for G357M are 1.21, 0.479, 1.35, 0.281 and 0.417.
As to G357E, the cAMP reporter score is -0.631 in data set [1] (pH 5.5); 1.91 in data set [1] (pH 6); 0.53 in data set [1] (pH 6, modulator: ogerin); -0.853 in data set [1] (pH 6.5, modulator: ogerin). Further, the surface expression score in data set [2] was -1.08.
For G357R, the cAMP reporter score in data set [1] (pH 5.5) is 0.17; in data set [1] (pH 6, modulator: ogerin), -0.427; in data set [1] (pH 6.5, modulator: ogerin) it was 0.532. Moreover, the surface expression score in data set [2] was -0.307.
With G357K, the cAMP reporter score in data set [1] (pH 5.5) was 0.675; in data set [1] (pH 6) it was 0.588; in data set [1] (pH 6, modulator: ogerin) it was 0.313; in data set [1] (pH 6.5, modulator: ogerin) it was 0.411. In data set [2], the surface expression score came to 1.47.
For G357H, the cAMP reporter score came to 1.09 in data set [1] (pH 5.5); 1.77 in data set [1] (pH 6); 1.42 in data set [1] (pH 6, modulator: ogerin); 0.68 in data set [1] (pH 6.5, modulator: ogerin). Moreover, in data set [2], the surface expression score amounted to 0.924.
The corresponding values for G357S are 0.007, 0.215, 0.284, -0.679 and 0.198.
Turning to G357P, the cAMP reporter score in data set [1] (pH 5.5) is 0.119; in data set [1] (pH 6), 0.858; in data set [1] (pH 6, modulator: ogerin), 1.34; in data set [1] (pH 6.5, modulator: ogerin), 0.586. Besides, the surface expression score in data set [2] is 1.18.
The like results for G357V were, in that order, -0.147, -0.286, -0.231, -0.506 and -0.034.
With G357T, the cAMP reporter score amounted to 0.515 in data set [1] (pH 5.5); 2.08 in data set [1] (pH 6); 1.72 in data set [1] (pH 6, modulator: ogerin); 1.61 in data set [1] (pH 6.5, modulator: ogerin).
For the variant G357Y, the cAMP reporter score in data set [1] (pH 5.5) is 0.684; in data set [1] (pH 6), -0.127; in data set [1] (pH 6, modulator: ogerin) it was 0.484; in data set [1] (pH 6.5, modulator: ogerin), 0.772. Also, the surface expression score in data set [2] is 0.009.
The corresponding values for G357F are 0.601, 0.876, 0.868, 1.09 and 0.084.
Turning to G357D, the cAMP reporter score is -0.204 in data set [1] (pH 5.5); 0.144 in data set [1] (pH 6); -0.482 in data set [1] (pH 6, modulator: ogerin); -0.26 in data set [1] (pH 6.5, modulator: ogerin). Moreover, the surface expression score in data set [2] is -0.006.
In the case of G357Q, the cAMP reporter score in data set [1] (pH 5.5) is 0.466; in data set [1] (pH 6, modulator: ogerin), 0.909; in data set [1] (pH 6.5, modulator: ogerin), 1.04. For the same variant, in data set [2], the surface expression score was 0.236.
G357C: the cAMP reporter score came out at 1.03 in data set [1] (pH 5.5); 0.663 in data set [1] (pH 6); 1.15 in data set [1] (pH 6, modulator: ogerin); 1.54 in data set [1] (pH 6.5, modulator: ogerin). Further, the surface expression score in data set [2] was found to be 0.617.
Regarding G357A, the cAMP reporter score in data set [1] (pH 5.5) is 0.234; in data set [1] (pH 6), -0.218; in data set [1] (pH 6, modulator: ogerin) it was 0.59; in data set [1] (pH 6.5, modulator: ogerin), 1.06. Further, the surface expression score in data set [2] worked out at 1.07.
Take G357L: the cAMP reporter score was -0.205 in data set [1] (pH 5.5); 1.26 in data set [1] (pH 6); -0.085 in data set [1] (pH 6, modulator: ogerin); -0.171 in data set [1] (pH 6.5, modulator: ogerin). In data set [2], the surface expression score was -0.421.
In the case of G357W, the cAMP reporter score in data set [1] (pH 5.5) was 0.441; in data set [1] (pH 6) it was 0.776; in data set [1] (pH 6, modulator: ogerin), 0.314; in data set [1] (pH 6.5, modulator: ogerin), -0.217. Besides, in data set [2], the surface expression score was 0.123.
The corresponding values for G358_F359del are 0.112, -0.036, 0.082, 0.149 and 0.026.
In the case of P360_T361insGS, the cAMP reporter score is 0.01 in data set [1] (pH 5.5); 0.023 in data set [1] (pH 6, modulator: ogerin); -0.961 in data set [1] (pH 6.5, modulator: ogerin). Moreover, the surface expression score in data set [2] came to 0.004.
As for T361_G362insGSG, the cAMP reporter score in data set [1] (pH 5.5) amounted to 0.85; in data set [1] (pH 6), 1.32; in data set [1] (pH 6, modulator: ogerin), 1.26; in data set [1] (pH 6.5, modulator: ogerin) it was 0.953. Further, in data set [2], the surface expression score is 0.605.
As to G355_G357del, the cAMP reporter score in data set [1] (pH 5.5) was 0.089; in data set [1] (pH 6), -0.392; in data set [1] (pH 6, modulator: ogerin), 0.505; in data set [1] (pH 6.5, modulator: ogerin), 0.085. In data set [2], the surface expression score came out at 0.235.
G357del: the cAMP reporter score in data set [1] (pH 5.5) is 0.513; in data set [1] (pH 6), -0.275; in data set [1] (pH 6, modulator: ogerin), 0.339; in data set [1] (pH 6.5, modulator: ogerin) it was 0.277. Also, the surface expression score in data set [2] was determined as 0.556.
As for G362_R363insG, the cAMP reporter score was determined as 0.885 in data set [1] (pH 5.5); 1.82 in data set [1] (pH 6); 1.7 in data set [1] (pH 6, modulator: ogerin); 1.46 in data set [1] (pH 6.5, modulator: ogerin). The surface expression score in data set [2] was found to be 0.934.
With P360_T361insGSG, the cAMP reporter score in data set [1] (pH 5.5) is -0.029; in data set [1] (pH 6) it was 0.723; in data set [1] (pH 6, modulator: ogerin), 0.588; in data set [1] (pH 6.5, modulator: ogerin), 1.05. In data set [2], the surface expression score stood at 0.223.
The like results for T361_R363del were, in that order, 0.674, 0.844, -0.285, 0.21 and 0.149.
In the case of G357_G358insG, the cAMP reporter score in data set [1] (pH 5.5) worked out at 0.69; in data set [1] (pH 6) it was 0.766; in data set [1] (pH 6, modulator: ogerin) it was 1.17; in data set [1] (pH 6.5, modulator: ogerin) it was 1.16. In data set [2], the surface expression score is 1.09.
